# About 6,200 (6.6%) of roughly 94,000 compounds were called active. This list was built around the results that the source calls inconclusive (neither active nor inactive); the mix of calls is not that of the screen. Calls follow the shape of the dose curve; as a rule, active = well fitted inhibition curve with a large enough effect; inconclusive = small, poorly fitted or top-dose-only effect; inactive = flat fitted curve, though single readings scatter. Potencies beside an inconclusive call are fits to weak or partial responses and may not hold up.
# Assay: Cytotoxic Profiling in HEK 293 Cell Line of Diverse Libraries Using Quantitative High-Throughput Screening; also: nearly all actives have a fitted effect of over 60% in size
# Settings: HEK 293 viability, ATP luminescence (CellTiter-Glo), 48-72 h; series mostly up to 115 µM
# In short: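 Read-out: CellTiter-Glo ATP luminescence. Cells: HEK 293, 250 cells/well. Exposure: 48 or 72 hr, 37 degree Celsius.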
# Potency is read from the fitted curve at half-maximal effect; tags tell the direction and shape of the fitted curve.
row,SMILES,Potency
1,CCc1nc(-c2c3n(c(=O)n(CC(=O)Nc4c(C)cccc4CC)c2=O)CCCC3)no1,inactive
2,CC(C)CN1CCN(C(=O)c2cc3c(s2)CCN(C(=O)c2ccc(Cl)cc2)C3)CC1,"inconclusive: 31.6 µM [inhibitor, partial curve, poor fit]"
3,Cc1c(Cl)cc(C(=O)NCC2CNCCOC2)cc1Cl (configuration not stated),"inconclusive: 79.4 µM [inhibitor, partial curve, poor fit]"
4,COC1C(=O)N(C2CCN(Cc3ccc(F)cc3F)CC2)C12CCOCC2 (configuration not stated),"inconclusive: 39.8 µM [inhibitor, full curve]"
5,CC(C)(C)CC(=O)Nc1cnc(-c2cccc(Cl)c2)nc1,active: 35.5 µM
6,O=C(O)CCCNC(=O)Cn1nc2c(cc1=O)CCCCC2,inactive
7,CC1=C[C@@H](CNC(=O)c2ccncc2)[C@H](C(C)C)C[C@H]1Cc1nnc(-c2ccncc2)o1,active: 79.4 µM
8,Cc1cc(C)n(CCC(=O)N2CCC(Cc3nc(C4CCOCC4)no3)CC2)n1,"inconclusive: 79.4 µM [inhibitor, single point]"
9,CCOc1ccccc1CN1CCC2(CCN(C(=O)c3ccccc3F)CC2)Oc2ccccc21,"inconclusive: 39.8 µM [inhibitor, full curve, poor fit]"
10,O=C(c1ccoc1)N1CC[C@@H](c2ccc3ccccc3c2)[C@H](O)C1,"inconclusive: 50.1 µM [inhibitor, partial curve, poor fit]"
11,Cc1ccc(C)c(NC(=O)[C@H]2CCC[C@H]2NC(=O)c2cnc(C)cn2)c1,inactive
12,COC(=O)[C@H](Cc1ccc(OC)cc1)NC(=O)[C@H]1CN(C(=O)c2ccc(N(C)C)cc2)CCN1C(=O)C1CCCCC1,"inconclusive: 50.1 µM [inhibitor, partial curve, poor fit]"
13,Cc1nn(-c2ccc(C(C)(C)C)cc2)c(C)c1[C@@H]1C=C[C@@H](NC(=O)CC(C)(C)CC(=O)O)C1,inactive
14,COc1cccc(NC(=O)c2c(C)oc3ccn(Cc4ccc(F)cc4)c(=O)c23)c1,"inconclusive: 12.6 µM [inhibitor, full curve]"
15,Cc1noc(C)c1S(=O)(=O)N1CCCC(Cc2noc(-c3ccncc3)n2)C1 (configuration not stated),"inconclusive: 56.2 µM [inhibitor, partial curve, poor fit]"
16,COc1ccc(-c2nc(C)nc3c2CCN([S+](=O)([O-])c2cccc(OC)c2)CC3)cc1,"inconclusive: 50.1 µM [inhibitor, partial curve, poor fit]"
17,CN1CCN(C(=O)C2CCc3nnc(-c4cccc(C(F)(F)F)c4)n32)CC1 (configuration not stated),inactive

# Reference: PubChem BioAssay AID1345083 (National Center for Advancing Translational Sciences (NCATS), 2018)
